In PubChem BioAssay AID2451 (National Center for Advancing Translational Sciences (NCATS), 2010):
The whole screen tested about 290,000 compounds, of which about 2,100 (0.72%) were called active. Inconclusive means that the source gave no clear call. Such entries were picked first, then a sample of the others. Calls come from the whole dose curve; as a rule, active = well fitted inhibition curve with a large enough effect; inconclusive = small, poorly fitted or top-dose-only effect, or effect the other way; inactive = flat fitted curve, though single readings scatter. Potencies beside an inconclusive call are fits to weak or partial responses and may not hold up.

What follows are molecules tested against Fructose-bisphosphate aldolase (Giardia intestinalis (strain ATCC 50803 / WB clone C6)) (UniProt A8B2U2) (assay: qHTS Assay for Inhibitors of Fructose-1,6-bisphosphate Aldolase from Giardia Lamblia). Conditions: purified Giardia FBPA; series mostly up to 59.6 µM.
Sequence of UniProt A8B2U2 (A8B2U2 whole entry, looked up): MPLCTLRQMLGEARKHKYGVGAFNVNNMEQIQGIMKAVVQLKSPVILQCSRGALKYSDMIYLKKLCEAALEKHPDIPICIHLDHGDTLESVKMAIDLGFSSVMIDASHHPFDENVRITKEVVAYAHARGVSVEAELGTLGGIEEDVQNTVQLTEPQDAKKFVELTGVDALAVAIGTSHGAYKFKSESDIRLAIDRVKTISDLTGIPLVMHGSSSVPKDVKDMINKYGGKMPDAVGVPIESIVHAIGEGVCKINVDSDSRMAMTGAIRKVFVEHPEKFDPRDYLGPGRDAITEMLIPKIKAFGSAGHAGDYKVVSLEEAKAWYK
Method in brief: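 40 nM FBPA preincubated 10 min at RT with compound (up to 57.5 uM final), then substrate plus GAPDH/TPI/NAD/arsenate coupling and diaphorase/resazurin added. Fluorescence read after 20 min at RT, 525/598 nm.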
Note: nearly all actives have a fitted effect of over 55% in size.
Potency is the fitted concentration of half-maximal effect; tags give direction and shape of the fitted curve.

Structure (SMILES) | Potency
O=C(NCc1ccco1)/C(=C/c1ccco1)NC(=O)c1ccc(Br)o1 | inactive
CC1CN(S(=O)(=O)c2ccc(NC(=O)c3cc(-c4ccccc4O)n[nH]3)cc2)CC(C)O1 (stereo unspecified) | inactive
COc1ccc(C)cc1NC(=O)C(Sc1nnc(-c2cccs2)o1)c1ccccc1 (stereo unspecified) | inactive
O=c1c(Cl)c(Cl)cnn1-c1ccccc1 | inactive
O=C(COC(=O)c1cccs1)c1ccc2c(c1)OCCO2 | inactive
C1CSC2(N1)C1CC3CC(C1)CC2C3 (stereo unspecified) | inconclusive: 17.7 µM [inhibitor, partial curve]
Cc1ccc(/C=N/NC(=O)c2ccccn2)s1 | inactive
CC(=O)Nc1ccc(NC2=C(Cl)C(=O)c3ccccc3C2=O)cc1 | inconclusive: 28.1 µM [inhibitor, single point]
Cc1oc(CSCCSCc2cc(C(=O)O)c(C)o2)cc1C(=O)O | active: 14.1 µM
CCCC(C)NC(=O)C1c2ccccc2Oc2ccccc21 (stereo unspecified) | inactive
COC(=O)CCC(=O)OC1(C)C(=O)C=C2C=C(C3CC3)N(CCCOC(C)C)C=C2C1=O (stereo unspecified) | inconclusive: 0.126 µM [inhibitor, full curve]
COc1ccc(OCCSc2ncccn2)cc1 | inactive
CC1CCN(S(=O)(=O)c2ccc(C(=O)Nc3nnc(-c4ccncc4)o3)cc2)CC1 | inconclusive: 25.1 µM [inhibitor, single point]
CCOC(=O)C1CCCN(CCC(=O)Nc2cccc(F)c2)C1 (stereo unspecified) | inactive
Cc1ccc(C(OCC(O)CNC(CO)C(O)c2ccc([N+](=O)[O-])cc2)c2ccccc2)cc1 (stereo unspecified) | inconclusive: 22.4 µM [inhibitor, single point]
O=C(CCCn1cnc([N+](=O)[O-])n1)Nc1cccc2ccccc12 | inconclusive: 17.7 µM [inhibitor, single point]
O=Cc1cc(-c2ccccc2)[nH]c1-c1ccccc1 | inactive
COc1cc(C(=O)Oc2c(CN3CCOCC3)cc(Cl)c3cccnc23)cc(OC)c1OC | inconclusive: 44.6 µM [inhibitor, single point]
COCC(C)NC(=O)CSc1nc2ccccc2n1CCc1ccccc1 (stereo unspecified) | inactive
COc1ccc2c(c1)-c1nc(/N=C/c3cccc(OC)c3O)sc1CC2 | active: 1.41 µM
CCOc1ccc2noc3c2c1C(=O)c1ccccc1-3 | inconclusive: 0.224 µM [inhibitor, full curve]
CC(NC(=O)COc1ccc(S(=O)(=O)N2CCCC2)cc1)c1ccccc1 (stereo unspecified) | inactive
CCCCc1ccc(NC(=O)CSc2nnc(C)c(=O)n2N)cc1 | inactive
COc1ccccc1N(CC(=O)N/N=C/c1c(O)ccc2ccccc12)S(C)(=O)=O | inactive
Cc1ccc(OCC(O)CN2C(=O)NC(C)(C)C2=O)c(C)c1 (stereo unspecified) | inactive
Cc1ccc(O)c(N=Cc2cc(Cc3ccccc3)cc([N+](=O)[O-])c2O)c1 | inconclusive: 14.1 µM [inhibitor, partial curve]

Structure (SMILES) | Potency
Cc1csc(SCC(=O)c2c(N)n(CC(C)C)c(=O)n(C)c2=O)n1 | inactive
O=C(COC(=O)c1cccc(S(=O)(=O)N2CCc3ccccc3C2)c1)NCc1ccco1 | inactive
O=C(CCn1nc(-c2ccccc2)ccc1=O)NCCCN1CCCCCC1 | inconclusive: 31.5 µM [inhibitor, single point]
C[C@@H](C(=O)Nc1nc(-c2ccccn2)cs1)N1C(=O)C2CCCCC2C1=O (stereo partly specified) | inconclusive: 44.6 µM [inhibitor, single point]
O=[N+]([O-])c1ccc(NC(=S)N2CCN(c3ccccc3)CC2)cc1 | inactive
CCNc1nc(NC(C)C)nc(NS(=O)(=O)c2ccc(C)cc2)n1 | active: 28.2 µM
Cc1ccccc1OCCCN1CCCC1 | inconclusive: 22.3 µM [inhibitor, partial curve]
O=C(Nc1nc(-c2ccco2)c(-c2ccco2)s1)C1CCC1 | inactive
O=C(/C=C/c1ccncc1)c1ccc2c(c1)OCCO2 | inactive
CCOc1ccc(CN2CCN(C(=O)Cc3ccccc3)CC2)cc1 | inconclusive: 12.6 µM [inhibitor, partial curve]
O=C(N/N=C1\CCc2ccccc21)c1ccc(O)cc1 | inactive
Cc1[nH]c2ccccc2c1C1(O)C(=O)N(C(C)C)c2ccccc21 (stereo unspecified) | inconclusive: 44.6 µM [inhibitor, single point]
Clc1ccc(CN2CCSCC2)c(Cl)c1 | inconclusive: 25.1 µM [inhibitor, single point]
Cc1ccc(NC(=O)COC(=O)c2ccc([N+](=O)[O-])o2)cc1S(=O)(=O)N1CCCCC1 | inconclusive: 17.7 µM [inhibitor, partial curve]
CN(/N=C/C=C/c1ccccc1)c1cc(=O)n(C)c(=O)[nH]1 | inconclusive: 12.6 µM [inhibitor, partial curve]
Cc1ccc(C)c(/C=N/Nc2nc3ccccc3c(=O)n2O)c1 | active: 15.8 µM
Cc1cccc(C(=O)Nc2ccc(S(=O)(=O)Nc3nc(C)cc(C)n3)cc2)c1 | inconclusive: 35.5 µM [inhibitor, single point]
CCN(C(=S)Nc1cc(S(=O)(=O)N2CCOCC2)ccc1Cl)c1cccc2ccccc12 | active: 7.06 µM
O=[N+]([O-])/C(=C\Nc1ccccc1Cl)S(=O)(=O)c1ccccc1 | inactive
CN(CC#CC1(O)c2ccccc2-c2ccccc21)Cc1ccccc1 | inconclusive: 19.9 µM [inhibitor, single point]
Cn1nnc(NC(=O)c2cccs2)n1 | inactive
COc1ccc(CN2CC=C(c3ccc(F)cc3)CC2)cc1Br | inconclusive: 15.8 µM [inhibitor, partial curve]
N#Cc1cc(S(=O)(=O)c2ccc(F)cc2)c(N)[nH]c1=O | inconclusive: 17.7 µM [activator, partial curve]
O=C(CC(=O)Nc1ccccn1)Nc1ccccn1 | inactive
C[C@@H]1O[C@@H](OC[C@H]2O[C@@H](Oc3c(-c4ccc(O)c(O)c4)oc4cc(O)cc(O)c4c3=O)[C@H](O)[C@@H](O)[C@@H]2O)[C@H](O)[C@H](O)[C@H]1O | inconclusive: 22.3 µM [inhibitor, partial curve]
